# Assay results: the RNAGym collection of RNA variant scans (doi:10.7554/elife.90254)
# The source gives no read counts; variants with many changes may rest on few reads.
# B1: LINE1-mini (parent)
# chain: GGCAGAGCUCAACACAGCGUGGCAAAGUGGCUGUGGCUAGACUGCC
# Variants of: B1
# Experiment: self-cleavage, relative activity (ratio to wild type); higher = more cleavage; in vitro, sequencing; the parent is a self-cleaving ribozyme
row,Variant,self-cleavage
1,GACAGAGCUCAACACAUCGUCGCACAGUGGCUGUGGCUAGACUGAC [G2A G17U G21C A25C C45A],0.23
2,GACAGAGCUCAACACAUCGUGGCAAAGGGGCUGUGGCUAGACUGCC [G2A G17U U28G],0.15
3,GACAGAGCUCAACACAGCAUGGCCAAGUGGCUGUGGUUAGACUGCC [G2A G19A A24C C37U],0.27
4,GACAGAGCUCAACACAGCAUGGCUAAGUGGCUGUGGCUAGACUGCC [G2A G19A A24U],2.77
5,GACAGAGCUCAACACAGCAUGGCACAGUGGCUGUGGCUAGACUGCC [G2A G19A A25C],0.37
6,GACAGAGCUCAACACAGCAUGGCAAAGUGGCUGUGGAUAGACUUCC [G2A G19A C37A G44U],0.08
7,GACAGAGCUCAACACAGCAUUGCAAAGUGGCUGUGGCUAGACUGAC [G2A G19A G21U C45A],2.21
8,GACAGAGCUCAACACAGCAUGCCAAAGUGGCUGUGGCUAGACUGCC [G2A G19A G22C],0.69
9,GACAGAGCUCAACACAGCAUGGCAAAGUGGCUGGGGUUAGACUGCC [G2A G19A U34G C37U],0.43
10,GACAGAGCUCAACACAGCCUGGCAAAGUGGUAGUGGCUAGACUGCC [G2A G19C C31U U32A],0.1
11,GACAGAGCUCAACACAGCCUGGCAAAGUCGCUGUGGCUAGACUGCC [G2A G19C G29C],0.05
12,GACAGAGCUCAACACAGCCUGGCAAAGUCGCUGUGGCUAGAUUGCC [G2A G19C G29C C42U],0.06
13,GACAGAGCUCAACACAGCCCGGCAAAGUGGCGCUGGCUAGAAUGCC [G2A G19C U20C U32G G33C C42A],0.07
14,GACAGAGCUCAACACAGCUUGGAAAAGUGGCUGGGGUUAGAGUGCC [G2A G19U C23A U34G C37U C42G],0.02
15,GACAGAGCUCAACACAGCUUGGUAAAGUGGAUGUGGCUAGACUGCC [G2A G19U C23U C31A],0.03
16,GACAGAGCUCAACACAGCUUGGCAAAUUUGCUCUGGCUAGACUGCC [G2A G19U G27U G29U G33C],0.04
17,GACAGAGCUCAACACAGCUUGGCAAAGUGGCUGUGGCUAGACUUCC [G2A G19U G44U],0.83
18,GACAGAGCUCAACACAGCGUAGCCAACUGUCUGUGGCUAGACUGCC [G2A G21A A24C G27C G30U],0.39
19,GACAGAGCUCAACACAGCGUAGCUAAGUGUCUGUGGCUAGACUGCU [G2A G21A A24U G30U C46U],0.13

row,Variant,self-cleavage
1,GACAGAGCUCAACACAGCGUAGUAAAGUGGCUGUGGCUAGACUCCC [G2A G21A C23U G44C],1.46
2,GACAGAGCUCAACACAGCGUAGCAAAGUGGCUGUGGCUAAACUGCC [G2A G21A G40A],0.07
3,GACAGAGCUCAACACAGCGUUGCAACGUGCCUGUGGCUAGACUGCC [G2A G21U A26C G30C],0.75
4,GACAGAGCUCAACACAGCGUUGCAAGGUGGCUGUGGCUAGGCUGCC [G2A G21U A26G A41G],0.13
5,GACAGAGCUCAACACAGCGUUGCAAAGUAGCUGUGGCUAGACUGCA [G2A G21U G29A C46A],0.25
6,GACAGAGCUCAACACAGCGUUGCAAAGUGGCUGUGUCGAGACUGCC [G2A G21U G36U U38G],0.06
7,GACAGAGCUCAACACAGCGUGACAAAGUGGCUGUCGCUAGACUGCC [G2A G22A G35C],0.14
8,GACAGAGCUCAACACAGCGUGACAAAGUGGCUGAGGCUAGACUGCC [G2A G22A U34A],0.28
9,GACAGAGCUCAACACAGCGUGCCAAAUUGGUUGUAGCUAGACUGCC [G2A G22C G27U C31U G35A],0.32
10,GACAGAGCUCAACACAGCGUGUCAAAGUGGCUCUGGCUAGAUUGAC [G2A G22U G33C C42U C45A],0.1
11,GACAGAGCUCAACACAGCGUGUCAAAGAGGCUGUGGCUAGACUGCC [G2A G22U U28A],0.26
12,GACAGAGCUCAACACAGCGUGUCAAAGUGGCUGACGCUAGACUGCC [G2A G22U U34A G35C],0.12
13,GACAGAGCUCAACACAGCGUGGCAAAAUGGCUGUUGGUAGACAGCC [G2A G27A G35U C37G U43A],0.08
14,GACAGAGCUCAACACAGCGUGGCAAACUGGCUGUGGCUCGACUGCU [G2A G27C A39C C46U],0.27
15,GACAGAGCUCAACACAGCGUGGCAAACUGGCUGUGGCUAGUCUGCC [G2A G27C A41U],0.06
16,GACAGAGCUCAACACAGCGUGGCAAACUGGCUGUGGCUAGACUGGC [G2A G27C C45G],1.08
17,GACAGAGCUCAACACAGCGUGGCAAACUUGCUGUGGCUAGACUUCC [G2A G27C G29U G44U],0.81
18,GACAGAGCUCAACACAGCGUGGCAAACUGGCUUAGGCUAGACUGCC [G2A G27C G33U U34A],0.05
19,GACAGAGCUCAACACAGCGUGGCAAACUGGCUGGGGCUAGACUGCC [G2A G27C U34G],0.09

row,Variant,self-cleavage
1,GACAGAGCUCAACACAGCGUGGCAAAUUGGCUGUGGCUAGAAUGCA [G2A G27U C42A C46A],0.06
2,GACAGAGCUCAACACAGCGUGGCAAAUUGGCUGUGGCUAGACUGUC [G2A G27U C45U],1.82
3,GACAGAGCUCAACACAGCGUGGCAAAUUGGCUGUGGCUAGACUCCC [G2A G27U G44C],0.32
4,GACAGAGCUCAACACAGCGUGGCAAAUUGGCCGUGGCUAGACUGCC [G2A G27U U32C],0.26
5,GACAGAGCUCAACACAGCGUGGCAAAGUAGCUGUGGCUAGACUACC [G2A G29A G44A],1.27
6,GACAGAGCUCAACACAGCGUGGCAAAGUAGCGGUGGCUAGACUGCC [G2A G29A U32G],0.15
7,GACAGAGCUCAACACAGCGUGGCAAAGUCGCUGUGGCUAGUCUGCC [G2A G29C A41U],0.66
8,GACAGAGCUCAACACAGCGUGGCAAAGUCGCUGGGGCUAGACUGCC [G2A G29C U34G],0.08
9,GACAGAGCUCAACACAGCGUGGCAAAGUUGCUGUGGCUGGACUGCC [G2A G29U A39G],0.39
10,GACAGAGCUCAACACAGCGUGGCAAAGUUGCUGUGGCUUGACUGCC [G2A G29U A39U],0.73
11,GACAGAGCUCAACACAGCGUGGCAAAGUUGCUUUGGCUAGACUGCC [G2A G29U G33U],0.13
12,GACAGAGCUCAACACAGCGUGGCAAAGUGACUGUUGUUAGACAGCC [G2A G30A G35U C37U U43A],0.04
13,GACAGAGCUCAACACAGCGUGGCAAAGUGCUUGUUGCUAGACUGCC [G2A G30C C31U G35U],0.14
14,GACAGAGCUCAACACAGCGUGGCAAAGUGUCUCGGGAUAGACUGCC [G2A G30U G33C U34G C37A],0.02
15,GACAGAGCUCAACACAGCGUGGCAAAGUGUCUUUGGAUAGAAUGCC [G2A G30U G33U C37A C42A],0.16
16,GACAGAGCUCAACACAGCGUGGCAAAGUGUCUGUGGCUAUACUUCG [G2A G30U G40U G44U C46G],0.08
17,GACAGAGCUCAACACAGCGUGGCAAAGUGGCUACGGCUAGACUGCC [G2A G33A U34C],0.19
18,GACAGAGCUCAACACAGCGUGGCAAAGUGGCUAUGGCAAGACUGCC [G2A G33A U38A],0.24
